The values that follow come from PubChem BioAssay AID493208 (National Center for Advancing Translational Sciences (NCATS), 2011).

The campaign covered roughly 44,000 compounds. About 340 (0.77%) were called active. Not shown: some 5% with an inconclusive outcome. Calls follow the shape of the dose curve; as a rule, active = well fitted inhibition curve with a large enough effect; inconclusive = small, poorly fitted or top-dose-only effect; inactive = flat fitted curve, though single readings scatter. The list shows a part of the results.
Potency is read from the fitted curve at half-maximal effect.

The assay in a line: Acumen qHTS Assay for Inhibitors of the mTORC1 Signaling Pathway in MEF (Tsc2-/-, p53-/-) Cells: Sytravon. Also: nearly all actives have a fitted effect of over 50% in size.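 As to activity change, negative = inhibition: plate controls were DMSO for no effect and rapamycin for full effect.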 As to conditions: phospho-rpS6 immunofluorescence/PI, 24 h; series mostly up to 38.3 µM; activity change, negative = inhibition: at the top concentration. A digest of the protocol: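 Tsc2-/-, p53-/- mouse embryonic fibroblasts (empty-vector line) exposed to compound 24 hrs at 37 C, fixed, immunostained for phospho-rpS6 and counterstained with propidium iodide. Acumen laser scanning gives % positive cells from Alexa 488/PI ratio, thresholded using 7.5 nM rapamycin; PI count gives viability.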
In general terms: qHTS replaces the single test concentration by a dilution series.
As to `O=C1CC(c2c(F)cccc2Cl)c2c(c3ccccc3oc2=O)O1` (stereo not given), the “activity change, negative = inhibition” value is inactive: 3.34%.

As to `Cc1c(C(c2ccc(F)cc2)c2c(O)c3ccccc3oc2=O)c(=O)n(-c2ccccc2)n1C` (stereo not given), the “activity change, negative = inhibition” value is inactive: -15.4%.

Regarding `O=C(COc1ccc(Cl)cc1)Nc1ccc(Cl)cc1C(=O)c1ccccc1`, the “activity change, negative = inhibition” value is inactive: 2.65%.

For the compound `Cc1oc(-c2ccc(Cl)cc2)nc1CN1C(=O)CN=C(c2ccccc2)c2ccccc21`, the “activity change, negative = inhibition” value is inactive: -6.01%.

As to `O=c1[nH]c2ccccc2c(=O)n1-c1ccc(Cl)c(Cl)c1`, the “activity change, negative = inhibition” value was inactive: 7.98%.

Turning to `Cc1cccc(NC(=O)Cn2cc(C(=O)c3ccccc3)c3ccccc32)c1C`, the “activity change, negative = inhibition” value was inactive: -5.27%.

With `O=C(Nc1ccon1)c1cccn(Cc2cccc(Cl)c2)c1=O`, the “activity change, negative = inhibition” value is inactive: -2.65%.

Consider `O=C1CC(c2ccc(Br)cc2)c2c(c3ccccc3oc2=O)O1` (stereo not given), for which the “activity change, negative = inhibition” value was inactive: 2.61%.

As to `Cc1cc(NC(=O)c2cccn(Cc3cccc(Cl)c3)c2=O)no1`, the “activity change, negative = inhibition” value was inactive: -15.4%.

`Cc1cccc(-n2c(/C=C/c3cn(C)c4ccccc34)nc3ccccc3c2=O)c1`: the “activity change, negative = inhibition” value is inactive: 18.6%.

Regarding `COc1ccc(/C=C/c2nc3ccccc3c(=O)n2-c2ccc(C)cc2)cc1O`, the “activity change, negative = inhibition” value is inactive: 12.3%.

With `O=C(Nc1ccon1)c1cccn(Cc2ccccc2)c1=O`, the “activity change, negative = inhibition” value was inactive: -2.01%.

Consider `O=c1c2ccccc2nc(/C=C\c2ccc(F)cc2)n1-c1ccccc1F`, for which the “activity change, negative = inhibition” value is inactive: 7.93%.

With `COc1ccc(OCC(=O)N2CCN(Cc3cc(=O)n4nc(-c5ccccc5C)sc4n3)CC2)cc1`, the “activity change, negative = inhibition” value is inactive: -20.7%.

On to `CC(=O)NS(=O)(=O)c1ccc(NC(=O)c2cccn(Cc3ccc(Cl)cc3)c2=O)cc1`, for which the “activity change, negative = inhibition” value is inactive: 1.94%.

Regarding `Cc1cccc(NC(=O)Cn2cc(C(=O)c3ccccc3)c3ccccc32)c1`, the “activity change, negative = inhibition” value is inactive: -20.3%.

Consider `O=C(CCc1nc(C2=CCN(Cc3cccc(Cl)c3)CC2)no1)Nc1ccccc1F`, for which the “activity change, negative = inhibition” value was inactive: -15.4%.

For `O=C(COc1ccccc1Cl)N1CCN(CCc2ccncc2)CC1`, the “activity change, negative = inhibition” value is inactive: 0%.

Take `N#Cc1cc2c(nc1SCC(=O)Nc1ccc(OC(F)(F)F)cc1)C1CCN2CC1`: the “activity change, negative = inhibition” value is inactive: -25.3%.

Take `Cc1ccc2oc(-c3ccc(Cl)cc3)c(O)c(=O)c2c1`: the Potency is active: 9.27 µM.

Take `O=S1(=O)N(Cc2ccccc2)CCCN1Cc1cccc(Cl)c1`: the “activity change, negative = inhibition” value is inactive: 9.7%.

As to `Cc1ccc(Cn2cccc(C(=O)Nc3cc([N+](=O)[O-])ccc3C)c2=O)cc1`, the “activity change, negative = inhibition” value was inactive: -7.2%.

With `O=C(COc1cccc(Cl)c1)N1CCN(CCc2ccncc2)CC1`, the “activity change, negative = inhibition” value is inactive: -2.53%.

As for `CCc1ccc(NC(=O)c2cccn(Cc3cccc([N+](=O)[O-])c3)c2=O)cc1`, the “activity change, negative = inhibition” value was inactive: 0.856%.

In the case of `Cc1cccc(-n2c(/C=C/c3ccccc3O)nc3ccccc3c2=O)c1`, the “activity change, negative = inhibition” value is inactive: 13.3%.

On to `Cc1ccc(-n2c(/C=C/c3ccc(Br)s3)nc3ccccc3c2=O)cc1`, for which the “activity change, negative = inhibition” value is inactive: 6%.

For the compound `O=c1c2ccccc2nc(/C=C/c2cccc3ccccc23)n1-c1ccccc1Cl`, the “activity change, negative = inhibition” value was inactive: 10.3%.

Turning to `COc1ccc(Cl)cc1NC(=O)CN1C(=O)CN=C(c2ccccc2)c2cc(Cl)ccc21`, the “activity change, negative = inhibition” value was inactive: -0.0486%.

With `Cc1cc(-n2c(/C=C/c3ccc(Br)s3)nc3ccccc3c2=O)ccc1Br`, the “activity change, negative = inhibition” value was inactive: -8.76%.

In the case of `Cc1ccc(-n2c(/C=C/c3cc(Br)cs3)nc3ccccc3c2=O)cc1`, the “activity change, negative = inhibition” value is inactive: 11.9%.

Take `Cc1ccccc1CN1C(=O)CN=C(c2ccccc2)c2cc(Cl)ccc21`: the “activity change, negative = inhibition” value was inactive: -13.9%.

On to `COc1ccc(C(=O)Nc2ccc(Cl)cc2C(=O)c2ccccc2)c(OC)c1`, for which the “activity change, negative = inhibition” value is inactive: -17.5%.

Regarding `Cc1ccc(OCC(=O)N2CCN(CCc3ccncc3)CC2)cc1C`, the “activity change, negative = inhibition” value was inactive: -24.8%.

As for `CCCCc1ccc(NC(=O)c2cccn(Cc3ccc(Cl)cc3)c2=O)cc1`, the “activity change, negative = inhibition” value is inactive: -0.803%.

`Cc1c(C(c2ccc(Cl)cc2Cl)c2c(O)c3ccccc3oc2=O)c(=O)n(-c2ccccc2)n1C` (stereo not given): the “activity change, negative = inhibition” value was inactive: -1.51%.

On to `O=c1c2ccccc2nc(/C=C\c2ccccc2F)n1-c1ccc(O)cc1`, for which the “activity change, negative = inhibition” value is inactive: 10.3%.

With `CCN(CC)CCSc1nc2ccccc2c(=O)n1-c1ccc(Cl)cc1`, the “activity change, negative = inhibition” value was inactive: 0.751%.

As for `Cc1cccc(Cn2cccc(C(=O)Nc3ccc4c(c3)OCCO4)c2=O)c1`, the “activity change, negative = inhibition” value was inactive: 1.63%.

Take `COc1cccc(NC(=O)Cn2cc(C(=O)c3ccccc3)c3ccccc32)c1`: the “activity change, negative = inhibition” value was inactive: 3.73%.

For `CCCOc1ccc(C2SCC(=O)Nc3c2c(C)nn3-c2cccc(C)c2)cc1OC` (stereo not given), the “activity change, negative = inhibition” value is inactive: -0.393%.

For the compound `Cc1ccc(Cn2cccc(C(=O)Nc3ccc4c(c3)OCO4)c2=O)cc1`, the “activity change, negative = inhibition” value is inactive: -0.279%.

On to `Cc1ccc(Cl)cc1NC(=O)N(Cc1ccc2c(c1)OCO2)C1CCN(Cc2ccccc2)CC1`, for which the “activity change, negative = inhibition” value is inactive: 0.535%.

Consider `Cc1ccc2nc(NC(=O)c3cccn(Cc4ccc(Cl)cc4)c3=O)sc2c1`, for which the “activity change, negative = inhibition” value is inactive: -7.91%.

Consider `Cn1c(=O)n(C)c2cc(CNCCc3ccc(F)cc3)ccc21`, for which the “activity change, negative = inhibition” value was inactive: -0.882%.

Turning to `Cc1ccc(NC(=O)Cn2cc(C(=O)c3ccccc3)c3ccccc32)cc1`, the “activity change, negative = inhibition” value was inactive: -2.02%.

With `Cc1ccc(-n2c(/C=C\c3ccc(F)cc3)nc3ccccc3c2=O)cc1Cl`, the “activity change, negative = inhibition” value was inactive: 12.2%.

Consider `Cc1cccc(-c2nc(CN3C(=O)CN=C(c4ccccc4)c4ccccc43)c(C)o2)c1`, for which the “activity change, negative = inhibition” value is inactive: 2.26%.

`CCOc1ccc(CN(CCc2ccc3c(c2)OCO3)Cc2cccc(OC)c2)cc1`: the “activity change, negative = inhibition” value is inactive: -17.8%.

For the compound `COc1ccc(C)cc1NC(=O)N(Cc1ccc2c(c1)OCO2)C1CCN(Cc2ccccc2)CC1`, the “activity change, negative = inhibition” value was inactive: -5.59%.

As for `CC(C)C12CN3CC(C(C)C)(CN(C1)C3c1ccccn1)C2=O` (stereo not given), the “activity change, negative = inhibition” value was inactive: 3.38%.
